In PubChem BioAssay AID1963576 (National Center for Advancing Translational Sciences (NCATS), 2024):
Among all 46,000 compounds or so, about 60 (0.1%) were called active. Not shown: some 3% with an inconclusive outcome. Calls follow the shape of the dose curve; as a rule, active = well fitted inhibition curve with a large enough effect; inconclusive = small, poorly fitted or top-dose-only effect; inactive = no such curve, though single readings can be large or run the other way. Some of the results follow.

assay: Primary qHTS assay for Inhibitors of ovarian cancer metastasis using an organotypic tumor microenvironment (TME) model.; also: nearly all actives have a fitted effect of over 65% in size;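 as to activity change, negative = inhibition: plate controls were DMSO wells for no effect and tomatine positive control wells for full effect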; settings: SKOV3ip1-GFP adhesion/invasion on 3D omental model, fluorescence; series mostly up to 45.8 µM; activity change, negative = inhibition: at the top concentration
How it was run: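 Primary human omental fibroblast/mesothelial 3D culture pre-formed 48 h. SKOV3ip1-GFP cells added with compounds (0.36-46 umol/L), incubated 2 h RT/16 h 37 C, fixed; GFP cells quantified at 488/509 nm.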

Activity change, negative = inhibition, inactive:
Cc1ccn2c(=O)c(C(=O)NCc3ccccc3Cl)c(O)nc2c1 5.53%
CCOC(=O)c1c(N)n(-c2cccc(C)c2C)c2nc3ccccc3nc12 -16%
CCc1ccccc1Nc1nn2c(=O)c3ccc(C(=O)NC4CCCCC4)cc3nc2s1 -10.2%
COc1ccc(S(=O)(=O)Nc2cccc(-c3ccc(N4CCCCCC4)nn3)c2)c(OC)c1 3.98%
COC(=O)C(CCSC)NC(=O)c1cc2c(n(-c3ccc(OC)cc3)c1=O)CC(C)(C)CC2=O (configuration not stated) 20%
Cc1ccccc1-c1nnc(SCC(=O)N2CCCCC2)o1 -5.82%
CCN(c1ccccc1)S(=O)(=O)c1nnc(NC(=O)c2ccco2)s1 -0.387%
COc1cc(OC)c(Nc2c3c(nc4nc(-c5cccs5)nn24)CCCC3)cc1Cl 1.1%
O=C(Nc1cccc2c(=O)cc(-c3nn[nH]n3)oc12)c1ccc(OCCCCc2ccccc2)cc1 -12.2%
COc1ccc(-c2nc3scc(CCNC(=O)Cc4ccc(F)cc4)n3n2)cc1 2.05%
CCC(C)NC(=O)c1ccc2nc(Cc3ccccc3)oc2c1 (configuration not stated) 1.22%
COc1cc(CN(C(=O)COc2ccc(Cl)c(C)c2)c2ccccn2)cc(OC)c1OC -2.58%
Cc1ccc(-n2ncc(C(=O)Nc3c(Cl)cccc3Cl)c2C2CCNCC2)cc1 -14.2%
O=C(COCc1cc(-c2ccc3c(c2)OCO3)on1)NCc1ccc(F)cc1 -5.95%
CSc1ccc(CCNC(=O)c2ccc(CS(=O)Cc3ccc(Cl)cc3)o2)cc1 (configuration not stated) 10.2%
CSc1nc2c([nH]c3ccccc32)c(=O)n1-c1ccc(C)cc1 -2.39%
Cc1ccc2nc(-c3ccc(Cl)c(NC(=O)c4ccc(Br)o4)c3)oc2c1 -9.86%
COc1cc(C2CC(=O)Nc3c2c(C)nn3-c2nncc(-c3ccccc3)n2)cc(OC)c1OC (configuration not stated) -4.78%

outcome, inactive:
Cc1ccc(N2CC(NC(=O)C3CCCCC3)CC2=O)cc1C (configuration not stated)
CC1(C(=O)Nc2ncc(Cc3ccc(Br)cc3)s2)Cc2ccccc2C(=O)O1 (configuration not stated)
COc1cccc2c1Oc1ncccc1N(c1ccc(C(=O)NCc3cccc(C)c3)s1)C2
CCOc1ccc(NS(=O)(=O)c2ccc3nc(-c4ccccc4)[nH]c3c2)cc1
Cc1csc2nc(COc3ccccc3NC(=O)c3ccccc3Cl)cc(=O)n12
Cn1c(=O)cc(OCC(=O)NCc2ccc(F)cc2Cl)c2ccccc21
Cc1ccc(-c2nc(CS(=O)(=O)CC(=O)Nc3cc(C)ccc3C)c(C)o2)cc1
Cc1nn(-c2ccccc2)c2sc(C(=O)Nc3cccc(O)c3)cc12
O=C(Nc1ccccc1Cl)c1cc2c(-c3ccccc3)nn(-c3ccccc3)c2s1
